Whole data set: some 110,000 compounds, median “z-score” near -0.1, cut for the highest 2% near 2. The list shows a part of the results.

In the assay the target is Metabotropic glutamate receptor 8 (Rattus norvegicus) (UniProt P70579). In words: mGluR8 Gi/Go-coupled signaling modulation – cell-based, rat, thallium flux, HTS, primary screen (AID 488969). The note with it: HEK293 rat mGluR8, GIRK (G protein-gated inwardly rectifying potassium channel) thallium flux, FluoZin2; at 10 µM; stronger effect = higher value; submaximal glutamate (EC20) added with thallium.
Sequence of UniProt P70579 (P70579 whole entry, looked up): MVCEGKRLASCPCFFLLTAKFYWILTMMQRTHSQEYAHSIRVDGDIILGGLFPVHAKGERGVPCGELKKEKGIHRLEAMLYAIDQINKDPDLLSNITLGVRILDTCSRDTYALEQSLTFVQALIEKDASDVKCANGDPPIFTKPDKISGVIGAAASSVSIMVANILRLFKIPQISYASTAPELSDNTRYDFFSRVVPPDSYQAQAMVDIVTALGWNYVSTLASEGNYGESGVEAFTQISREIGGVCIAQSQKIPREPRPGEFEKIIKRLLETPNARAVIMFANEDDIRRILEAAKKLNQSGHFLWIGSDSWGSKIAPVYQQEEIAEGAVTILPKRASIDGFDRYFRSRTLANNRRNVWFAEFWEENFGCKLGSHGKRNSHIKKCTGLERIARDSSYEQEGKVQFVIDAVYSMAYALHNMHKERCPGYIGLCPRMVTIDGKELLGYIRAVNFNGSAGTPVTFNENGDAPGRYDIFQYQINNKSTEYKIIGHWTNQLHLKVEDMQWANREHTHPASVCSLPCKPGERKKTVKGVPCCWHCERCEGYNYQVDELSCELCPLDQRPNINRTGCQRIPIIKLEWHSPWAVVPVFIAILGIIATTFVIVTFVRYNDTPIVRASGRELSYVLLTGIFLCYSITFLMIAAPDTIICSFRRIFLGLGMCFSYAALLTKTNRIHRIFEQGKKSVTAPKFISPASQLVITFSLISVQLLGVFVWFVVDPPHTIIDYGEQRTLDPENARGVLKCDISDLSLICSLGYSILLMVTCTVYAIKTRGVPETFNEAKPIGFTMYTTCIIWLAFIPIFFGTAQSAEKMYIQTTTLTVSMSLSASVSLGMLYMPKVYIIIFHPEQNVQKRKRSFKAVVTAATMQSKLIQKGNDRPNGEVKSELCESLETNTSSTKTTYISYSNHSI
As to `COc1cc(/C=C2\SC(=O)N(CCNC(=O)c3cnc(C)cn3)C2=O)cc(OC)c1OC`, the z-score was -0.521.
In turn, `COc1ccc(C(=O)NC(=S)NCc2cccnc2)cc1[N+](=O)[O-]` displayed a z-score of -0.234.
Compound `c1ccc(C[n+]2csc3ccccc32)cc1` came in with a z-score of -0.0142.
As for `COc1cc(C(=O)NCc2nnc(SCC(=O)NCc3ccccc3)o2)cc(OC)c1OC`, the figure is 1.55; as for `Cc1ccc(C)c(NC(=O)CN(C)C(=O)Cc2ccccc2)c1`, -0.403; as for `CCOC(=O)N1CCC(NC(=O)c2ccc(OC)c(CN3CC(=O)N4CCCC4C3=O)c2)CC1` (stereo not drawn), -0.0166.
Compound `O=C(Cn1nnc(-c2cccc(C(F)(F)F)c2)n1)N1CCCCCC1` displayed a z-score of -1.55.
Compound `N/C(=N\OC(=O)COc1ccc(Br)cc1Cl)c1ccccn1` registered a z-score of -0.0604.
Take `Cn1c(N/N=C\c2cccc(O)c2)cc(=O)n(C)c1=O`: the z-score turned out to be 0.0652.
`CCN(CC)c1nc(Oc2ccc(=O)[nH]n2)nc(N2CCOCC2)n1` showed a z-score of -0.346.
Next, `COCCOC(=O)C1=C(C)N(c2ccccc2)C(=O)NC1c1cccc([N+](=O)[O-])c1` (stereo not drawn): -0.0918.
Consider `Cc1c(N=C2SCC(=O)N2c2c(C)n(C)n(-c3ccccc3)c2=O)c(=O)n(-c2ccccc2)n1C`, for which the z-score is -0.472.
In turn, `Cc1noc(C)c1C(=O)OCC(=O)Nc1ccccc1C(=O)NC(C)c1ccccc1` (stereo not drawn) registered a z-score of -1.4.
As to `CCCC1OC23CCCCC2C(C#N)(C#N)C1(C#N)C(=N)O3` (stereo not drawn), the z-score was -0.455.
In turn, `CN1CCN(C(=O)c2cn(C)c3ccc(S(=O)(=O)N(C)C4CCCCC4)cc3c2=O)CC1` registered a z-score of 0.0356.
In turn, `COC(=O)C1(c2ccccc2)NC(c2cccs2)C2C(=O)N(C)C(=O)C21` (stereo not drawn) came in with a z-score of -0.191.
For `O=C(c1ccc(F)cc1)N1CCN(c2cc(=O)[nH]nc2-c2ccccc2)CC1`, the z-score is 0.0606.
Compound `Cc1cc(=O)[nH]c(SCC(=O)Nc2ccc(S(=O)(=O)N3CCCCC3)cc2)n1` registered a z-score of -1.07.
`COc1cccc(Cn2cnc3c(NS(=O)(=O)c4cc(Cl)ccc4Cl)c(C)c(C)cc32)c1` registered a z-score of 0.261.
`CC(C)(C)OC(=O)NCc1nc(N)n[nH]1` showed a z-score of 0.58.
Regarding `Cc1cc2ccccc2c(=O)n1CC(=O)NCC1COc2ccccc2O1` (stereo not drawn), the z-score stood at 0.0188.
Consider `Cc1[nH]nc2c1C(c1ccc(OC(=O)c3ccco3)cc1)C(C#N)=C(N)O2` (stereo not drawn), for which the z-score turned out to be 0.251.
Compound `CCCCSc1cnn(-c2ccccc2)c(=O)c1SCCCC` had a z-score of -0.108.
In the case of `C/C(=N\Nc1ccc([N+](=O)[O-])cc1[N+](=O)[O-])c1ccc(-n2nncc2C(C)(C)C)cc1`, the z-score is -2.37.
Regarding `CC(=O)Oc1ccc(C(=O)[C@H]2[C@H]3C(=O)N(c4ccc(C)cc4)C(=O)[C@H]3[C@@H]3C=CC=NN32)cc1`, the z-score was -0.635.
In turn, `O=C(OCC(=O)N1CCOCC1)C(c1ccccc1)c1ccccc1` had a z-score of -0.421.
Take `CCOCCCNC(=O)N1CCOCC1`: the z-score was -0.0637.
Next, `CCS(=O)(=O)N1CCCC(C(=O)NC2CCCCC2)C1` (stereo not drawn): 0.44; `Cc1ccc(Sc2ccc(N)cc2C#N)cc1`: -0.101; `Cc1cc(Nc2ccccc2)nc(NCc2ccccc2)n1`: 2.34.
`CC(NC(=O)CCl)c1ccc(Cl)c(Cl)c1` (stereo not drawn) displayed a z-score of -0.0972.
`O=C(O)c1cccc(NCc2ccncc2)c1` returned a z-score of 0.664.
`Oc1ccc(-c2onc3ccc(Cl)cc23)cc1` gave a z-score of -0.116.
In the case of `CCOc1ccccc1NC(=O)Cn1c(=O)n(CCC(=O)NC2CCCC2)c(=O)c2ccccc21`, the z-score was -0.0443.
On to `CC(C(=O)Nc1ccc2c(c1)OCCO2)N1CCN(C(=O)c2ccco2)CC1` (stereo not drawn), for which the z-score stood at 0.212.
Regarding `COc1ccc(N=Cc2cccc(C)c2O)cc1Cl`, the z-score is -0.209.
With `O=C(Nc1ccccc1)c1cc([N+](=O)[O-])ccc1NC1CCCCC1`, the z-score came out at 1.3.
Next, `O=C(CNC(=O)c1ccc(Cl)cc1Cl)NCC(=O)Nc1ccccc1N1CCOCC1`: -0.0598; `Cc1ccc(C2C(=O)N(C3CCCC3)CC(=O)N2C2CCCCC2)cc1` (stereo not drawn): -0.426; `Cc1cccc(N2CCN(Cc3ccoc3)CC2)c1C`: 0.264.
Next, `CCNc1nc(NCC)nc(OCCOC(C)=O)n1`: -0.296.
`COc1ccccc1NC(=O)CN1CCN(C2c3ccccc3-c3ccccc32)CC1`: the z-score is -0.222.
The compound `CCC(C)[C@H](NC(=O)N1CCN(C)CC1)C(=O)OC` (stereo partly drawn) yielded a z-score of -0.206.
`COc1ccc(NC(=O)COC(=O)CCCc2c[nH]c3ccccc23)cc1OC` registered a z-score of -0.22.
For `COC(=O)C1=CN(CC2CCCO2)C=C(C(=O)OC)C1c1cc(OC)c(OC)c(OC)c1` (stereo not drawn), the z-score is -0.256.
Consider `Cc1ccc(S(=O)(=O)CCSc2nc(C)cc(C(F)(F)F)c2C#N)cc1`, for which the z-score is 0.0567.
As for `CCOC(=O)C1CCCN(C(=O)c2cn(CC)c3ccc(S(=O)(=O)N4CCCC4)cc3c2=O)C1` (stereo not drawn), the figure is 0.63.
Compound `CCOc1ccc(OCc2ccc(C(=O)N3CCc4ccccc4C3)o2)cc1` showed a z-score of -0.444.
Compound `CCOc1cc(NC(=S)Nc2cccc(OC)c2)c(OCC)cc1NC(=O)c1ccc(C)cc1` had a z-score of -0.0972.
As for `C=CCn1c(SCC(=O)NCC2CCCO2)nc2scc(-c3ccco3)c2c1=O` (stereo not drawn), the figure is -0.148; as for `Cc1nc(CNS(=O)(=O)c2ccc3c(c2)OCCO3)cs1`, 0.138; as for `COc1ccc(/C=N/NC(=O)c2ccc(N(C)S(=O)(=O)c3ccccc3)cc2)cc1OC`, 0.488.
For `Cc1ccc(S(=O)(=O)NC2(C(F)(F)F)C(=O)Nc3c2c(=O)[nH]c(=O)n3-c2ccccc2)cc1` (stereo not drawn), the z-score was determined as 0.198.
`Cc1ccc(-c2nn(C)c(=O)c3ccccc23)cc1CNC(=O)c1ccco1`: the z-score is -1.48.
As for `NC1=NC(=O)CC(C(=O)NCCc2ccccc2)S1` (stereo not drawn), the z-score is 0.323.
Consider `CCN(CC)CCn1c(NCc2ccco2)nc2ccccc21`, for which the z-score is -0.0164.
In turn, `CN(C)c1ccc(/C=C2\NC(=S)N(Cc3ccccc3)C2=O)cc1` came in with a z-score of 0.888.
For the compound `CC(C)(C)OC(=O)N1CCC(c2c(C(=O)O)cnn2-c2ccccc2Cl)CC1`, the z-score worked out at 0.0968.
Next, `CC(C)(C)SCCNC(=O)Nc1ccccc1`: 0.0127; `Clc1ccc(CNc2nc(N3CCOCC3)nc(N3CCOCC3)n2)cc1`: -0.553; `COC(=O)CC(NC(=O)c1ccco1)c1cccc2ccccc12` (stereo not drawn): -0.498.
`Cn1c(=O)cc(OCCCC(=O)NCCCN2CCN(Cc3ccccc3)CC2)c2ccccc21` showed a z-score of -0.329.
With `CC(=O)Nc1ccc(SCC(=O)c2cc(C)n(C)c2C)cc1`, the z-score is -0.0734.
The compound `CC(=O)c1ccc(NC(=S)N2C(C)CCCC2C)cc1` (stereo not drawn) returned a z-score of -0.0872.
As for `CCOC(=O)c1cc2occc2n1CC(=O)NC1CCC(C)CC1` (stereo not drawn), the z-score is -0.797.
Next, `CN(C)S(=O)(=O)c1cccc(C(=O)NC2CCCc3ccccc32)c1` (stereo not drawn): -0.104; `Cc1ccc(Sc2c([N+](=O)[O-])ncn2C)cc1`: -0.0293.
The compound `Cc1nn(C)c(C)c1/C=C(\C#N)C(N)=O` gave a z-score of -0.273.

The record behind these values is PubChem BioAssay AID488969 (Vanderbilt High Throughput Screening Facility, 2010).
